Results taken from article PMC4336329 (PLoS ONE, 2015).
Screen size: about 310,000 compounds; about 2,200 (0.71%) showed an effect of 50% or more. The effect is printed as a negative number. The list shows a part of the results.

target: human ether-à-go-go-related gene (hERG) potassium channel (human, UniProt Q12809); assay: primary screen, population patch clamp on CHO cells stably expressing hERG
Sequence (Q12809 whole entry, looked up): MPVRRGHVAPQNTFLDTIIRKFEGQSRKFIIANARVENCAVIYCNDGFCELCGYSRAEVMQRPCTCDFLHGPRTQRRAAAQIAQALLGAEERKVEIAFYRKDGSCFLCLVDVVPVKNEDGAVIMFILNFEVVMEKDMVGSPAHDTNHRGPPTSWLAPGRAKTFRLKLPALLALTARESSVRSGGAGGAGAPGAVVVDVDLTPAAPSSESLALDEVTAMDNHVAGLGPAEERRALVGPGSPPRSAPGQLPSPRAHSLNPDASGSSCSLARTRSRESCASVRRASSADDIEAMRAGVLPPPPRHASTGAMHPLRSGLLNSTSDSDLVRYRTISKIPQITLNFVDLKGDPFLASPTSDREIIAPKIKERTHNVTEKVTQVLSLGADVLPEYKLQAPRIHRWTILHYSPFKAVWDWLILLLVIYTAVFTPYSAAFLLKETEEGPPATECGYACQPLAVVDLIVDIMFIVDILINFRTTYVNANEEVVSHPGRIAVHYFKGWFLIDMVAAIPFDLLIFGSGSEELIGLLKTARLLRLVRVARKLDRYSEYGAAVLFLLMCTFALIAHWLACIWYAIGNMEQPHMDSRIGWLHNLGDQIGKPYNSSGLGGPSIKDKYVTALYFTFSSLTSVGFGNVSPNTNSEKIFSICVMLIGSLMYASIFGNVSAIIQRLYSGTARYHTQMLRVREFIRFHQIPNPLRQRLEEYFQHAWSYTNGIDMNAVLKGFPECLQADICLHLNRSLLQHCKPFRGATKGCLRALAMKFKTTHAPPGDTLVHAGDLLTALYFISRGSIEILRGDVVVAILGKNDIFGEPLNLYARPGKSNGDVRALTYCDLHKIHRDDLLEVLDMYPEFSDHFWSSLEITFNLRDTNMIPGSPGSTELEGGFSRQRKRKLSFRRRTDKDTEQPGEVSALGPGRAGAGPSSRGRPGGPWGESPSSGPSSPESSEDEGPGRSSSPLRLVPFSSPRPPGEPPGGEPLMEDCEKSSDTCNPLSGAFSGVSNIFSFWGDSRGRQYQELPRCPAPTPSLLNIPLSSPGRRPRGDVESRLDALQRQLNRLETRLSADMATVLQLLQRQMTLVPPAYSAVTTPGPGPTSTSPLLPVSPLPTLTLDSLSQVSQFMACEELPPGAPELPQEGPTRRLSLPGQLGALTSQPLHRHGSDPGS

| SMILES | hERG current change (%, negative = inhibition) at 1uM |
| --- | --- |
| CCC(C)C1NC(=S)N(Cc2ccccc2)C1=O (stereo not drawn) | 0.307% |
| Cc1cccc(NC(=O)c2cc(NC(=O)CCCC(=O)O)ccc2Cl)n1 | 7.72% |
| O=C(CC(C(=O)O)c1cccc(Br)c1)c1ccc(Cl)cc1 (stereo not drawn) | 17.8% |
| Cl.NCC12CC3CC(C1)CC(c1ccc(Cl)cc1)(C3)C2 | 10.1% |
| Cc1ccc(S(=O)(=O)N(C)c2ccc(OCC(=O)NCC3(N(C)C)CCCCC3)cc2)cc1 | -41.4% |
| CCCCNC(=O)Nc1nnc(-c2ccc(OCC)cc2)o1 | 13.3% |
| CSc1ccc(S(=O)(=O)Nc2ccccc2C(=O)N2CCOCC2)cc1 | 11.6% |
| Cc1cccc(C(=O)NC(=S)NNC(=O)COc2c(C)cccc2C)c1 | 12.9% |
| Cc1cccc(OCC(=O)Oc2ccc(Cl)cc2)c1 | 4.49% |
| O=C(CCl)c1ccc(Cc2ncc(C(F)(F)F)cc2Cl)s1 | 17% |
| Cc1cccc(-c2nnc(NC(=O)c3cccs3)s2)c1 | -0.719% |
| CCCOC(=O)c1ccc(O)cc1 | 14.2% |
| O=C(CSc1ncn(-c2ccccc2)n1)NCc1ccccc1 | 17.9% |
| Cc1ccc2nc(C)cc(C(=O)N3CCCC(CO)(Cc4ccccc4C)C3)c2c1 (stereo not drawn) | 5.68% |
| COCCn1c(SCC(=O)NC2CCCCC2)nnc1-c1ccncc1 | 13.4% |
| CCc1ccc(NC(=S)N(CCCN2CCOCC2)Cc2ccco2)cc1 | 7.6% |
| COc1ccc2oc3ccc(OC)cc3c(=O)c2c1 | 0.614% |
| S=C(NCc1ccc2c(c1)OCO2)Nc1ccc2nsnc2c1 | 11.5% |
| Cc1ccccc1NC(=O)Cc1nnc(SCc2ccc(Cl)c(Cl)c2)n1C | 6.67% |
| Cc1ccc(S(=O)(=O)NC2CCCC2)cc1C | 0.263% |
| CCCCCn1c(CCNC(=O)CCC)nc2ccccc21 | -31.2% |
| COc1cc(CNC2CCCCCC2)cc(OC)c1 | 10.7% |
| COCC(=O)N(Cc1cc2cccc(C)c2[nH]c1=O)c1ccccc1 | 13.3% |
| O=C(C1CC(=O)N(C2CCCCC2)C1)N1CCN(c2ccccc2)CC1 (stereo not drawn) | 9.57% |
| CCCC1=NCCn2cccc21.O=C(O)/C=C/C(=O)O | 9.06% |
| COc1cc(/C=C/C(=O)NCc2cccnc2)cc(OC)c1OC | -0.588% |
| O=C(CSc1nnc(-c2cccnc2)o1)Nc1nccs1 | -0.554% |
